These results are taken from PMC3867114, “Kinetic analysis of the interactions between plant thioredoxin and target proteins” (Frontiers in Plant Science, 2013).

Experiment [1] has as its target T1, Trxh1 mutant with a C43S substitution (Arabidopsis thaliana) (UniProt P29448).
T1 sequence: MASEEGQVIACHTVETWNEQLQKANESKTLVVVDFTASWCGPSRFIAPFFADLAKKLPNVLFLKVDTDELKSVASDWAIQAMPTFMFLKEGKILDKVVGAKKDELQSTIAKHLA
Briefly: mixed disulfide complex formation, non-reducing SDS-PAGE with N-terminal sequencing; 50 μM Trxh1CS and 50 μM PrxQ incubated for the periods indicated, quenched with 5% TCA, non-reducing SDS-PAGE; both purified.

Experiment [2] concerns the target T2, Trxh1SS after thiol alkylation with NEM (cysteine at position 11 alkylated) (Arabidopsis thaliana) (UniProt P29448).
T2 sequence (chain, cysteine at position 11 alkylated with N-ethylmaleimide (NEM)): T1 sequence with C40S
The experiment is described as follows: SPR; Biacore X, 25°C; Trx variant immobilised as ligand on a CM5 chip by amine coupling (800–900 RU); target protein injected as analyte; H buffer (10 mM HEPES-NaOH, 150 mM NaCl, 50 μM EDTA, pH 7.4) with 0.005% Surfactant P20; 1:1 model for MDH, double exponential model for PrxQ; apparent (mixed disulfide formation with Trxh1CS); both purified. Background: Surface plasmon resonance follows binding to a sensor surface in real time, without labels.

Experiment [3] addresses T3, Trxh1 mutant with a C40S/C43S substitution (Arabidopsis thaliana) (UniProt P29448).
T3 sequence: T1 sequence with C40S
Described as above.

In experiment [4] the target is T1, Trxh1 mutant with a C43S substitution (Arabidopsis thaliana). The experiment is described as follows: SEC; TSK-G2000SWXL in H buffer, 280 nm; Trxh1CS incubated with the oxidized target at 25°C, complexes treated with 10 mM NEM before the chromatography; both purified.
The target is the same in experiment [5]. The experiment is described as follows: condition: only without prior treatment with 10 mM NEM; SEC; TSK-G2000SWXL in H buffer, 280 nm; as a2 but without NEM treatment before the chromatography (for MDH: second round of the fractionated complex); both purified.
The target is the same in experiment [6]. The experiment is described as follows: SPR; Biacore X, 25°C; Trx variant immobilised as ligand on a CM5 chip by amine coupling (800–900 RU); target protein injected as analyte; H buffer (10 mM HEPES-NaOH, 150 mM NaCl, 50 μM EDTA, pH 7.4) with 0.005% Surfactant P20; 1:1 model for MDH, double exponential model for PrxQ; apparent (mixed disulfide formation with Trxh1CS); both purified.

Experiment [7] has as its target T4, Arabidopsis thaliana cytosolic thioredoxin h1, wild type (Arabidopsis thaliana) (UniProt P29448).
T4 sequence: T1 sequence with S43C
The experiment is described as above.

Positions count from the first letter of the chain named. No constants are given. Whether binding was seen depends on the method and setting. Some entries that bind do so weakly or less than the wild type.

B1: Arabidopsis thaliana chloroplast peroxiredoxin Q, oxidized form (enzyme, UniProt Q9LU86 68-216)
chain: KVNKGQAAPDFTLKDQNGKPVSLKKYKGKPVVLYFYPADETPGCTKQACAFRDSYEKFKKAGAEVIGISGDDSASHKAFASKYKLPYTLLSDEGNKVRKDWGVPGDLFGALPGRQTYVLDKNGVVQLIYNNQFQPEKHIDETLKFLKAA
modifications: Cys45–Cys50 intramolecular disulfide bond (oxidized form)
Consider B1, for which the binding entry in experiment [1] is on record as “binds”; in experiment [2], “binds”; in experiment [3], “binds”; in experiment [4], “binds”; in experiment [5], “no binding”.

B2: Arabidopsis thaliana chloroplast peroxiredoxin Q, reduced form (enzyme, UniProt Q9LU86 68-216)
chain: B1 chain
In the case of B2, the binding entry in experiment [6] is listed as “binds weakly”.

B3: Arabidopsis thaliana cytosolic malate dehydrogenase, oxidized form (enzyme, UniProt P93819 1-332, looked up)
chain: MAKEPVRVLVTGAAGQIGYALVPMIARGIMLGADQPVILHMLDIPPAAEALNGVKMELIDAAFPLLKGVVATTDAVEGCTGVNVAVMVGGFPRKEGMERKDVMSKNVSIYKSQAAALEKHAAPNCKVLVVANPANTNALILKEFAPSIPEKNISCLTRLDHNRALGQISERLSVPVSDVKNVIIWGNHSSSQYPDVNHAKVQTSSGEKPVRELVKDDAWLDGEFISTVQQRGAAIIKARKLSSALSAASSACDHIRDWVLGTPEGTFVSMGVYSDGSYSVPSGLIYSFPVTCRNGDWSIVQGLPIDEVSRKKMDLTAEELKEEKDLAYSCLS
modifications: Cys330–Cys330 intermolecular disulfide bond (oxidized form)
notes: cytosolic malate dehydrogenase (MDH), Arabidopsis thaliana, AT1G04410; also called MDH; oxidized MDH; source: cloned and purified as described in earlier work; oxidized by incubation with 50 μM CuCl2 for 1 h at 30°C
As to B3, the binding entry in experiment [7] is “no binding”.
